# In the supplement of paper PMC11417369:
# ± gives the standard deviation of the averaged measurements. The list shows a part of the results.
# Tested on: PfAP2-LT AP2 domain (GST-tagged)
# Experiment: gcPBM binding intensity (ln(normalized median fluorescence intensity)); higher = stronger DNA binding
# In short: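 Binding intensity is defined as the maximum Masliner-normalised natural-log median intensity across replicate spots for either probe orientation. It was measured on an Agilent 4 × 180k array of primer-extended double-stranded 36-bp intergenic genomic probes and negative controls, to which GST-tagged P. falciparum DNA-binding domains made in E. coli were applied for 1 h in 1× PBS with 1% milk, 0.2 mg/ml BSA, 0.5% salmon testes DNA and 0.03% Triton X-100. Detection was by Alexa488 anti-GST antibody and scanning at 488 nm.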
row,Sequence,gcPBM binding intensity (ln)
1,TTTTTTTTTAAATATACACACACATTTATACATATA [CACACA_site9122],9.16 ± 0.54
2,TTTGGAATATAATATTGTACATATTATATATATATA [XGTACX_site3187],8.6 ± 0.34
3,CCTCATCCACTATGCACACAAAAAAGAAATACACTA [CACACA_site3422],9.18 ± 0.48
4,TTTTTTTTTTTTTTAACACACATATATATATTTTTC [CACACA_site1922],8.76 ± 0.47
5,TAATGGATTATACGTGCACACATATATACAAATAAA [CACACA_site8116],9.08 ± 0.42
6,TTCTCAAATATAATAAAATTATAAAGTGACCTAACT [GTGCAC_negctrl_site493],8.43 ± 0.35
7,TTATTTATTTTTATATGTACACAAAAAAAAAAAAAA [XGTACX_site1459],8.16 ± 0.23
8,AATATATATAACGTTGGTACACAAAAATTATTAAAT [XGTACX_site8572],9.05 ± 0.44
9,AATACGCATTTTAGTACACACTTAAAAAGTTATTTT [CACACA_site7401],8.73 ± 0.35
10,AATTATATTAATTCTTCATTACATTTTAAAATATTA [XGTACX_negctrl_site510],8.34 ± 0.42
11,TGCTATTATTTATGTACACACCAATTTATTTATAAT [CACACA_site6029],8.97 ± 0.42
12,TTCGTTATATTTTGATGTACTGATTCATATATATAT [XGTACX_site1835],9.09 ± 0.42
13,ATTGATTTTTAATATACACACATAAGGACCACAAAA [CACACA_site4344],8.97 ± 0.35
14,AGAGAATATTTCCACACATGCAAATGTTATATGTAA [TGCATGCA_site282],8.77 ± 0.42
15,TATACATATGTATGCACACATACATACACATAGAAT [CACACA_site3480],9.21 ± 0.31
16,TATATTATTTAAAAAGTGCAGTTACAAGATGAACCT [GTGCAC_site9641],8.46 ± 0.33
17,TAATATTTATTCTATTGTACATAAAATATATATATA [XGTACX_site7132],8.39 ± 0.33
18,GGAAAGACATTACACAGTACCCAGGAAATCTACGGA [XGTACX_site2002],8.91 ± 0.4
19,ATTATATATGTATAAATATGCTATATATATATATAT [GTGCAC_negctrl_site430],9.4 ± 0.29
20,TCAACATTTAAAAATAGTACTCATAAACCTTTCGAA [XGTACX_site4111],8.46 ± 0.44
21,ATAAATAAAAAACACACACACACACCCAAAAAAAAA [CACACA_site2624],9.88 ± 0.3
22,TATCTCTCTTTCTGCTGTACATAAAAATTATATAAT [XGTACX_site5961],8.6 ± 0.39

row,Sequence,gcPBM binding intensity (ln)
1,AACATATTTTTAAATACACACACATAAAAAAAAAAA [CACACA_site8279],9.14 ± 0.33
2,CTCAACATATACGTAACACACATATATATATATATA [CACACA_site3838],9.93 ± 0.23
3,TCTACAAGGCTTGATCGTACAATTTGAATGTATTTG [XGTACX_site7698],8.8 ± 0.46
4,AGCATAAACAATTTTTGAAAAAATATACACTCATAG [CACACA_negctrl_site890],8.64 ± 0.43
5,TATATATATATATACACACACACAAAAAAAAAAAAA [CACACA_site1505],9.61 ± 0.38
6,AAAATAACGAGTCAAACACACATATATATATATATA [CACACA_site2039],10.1 ± 0.2
7,AGATTATATATATGTATATATGTATATATTTATATA [CACACA_negctrl_site1797],8.51 ± 0.44
8,TATGCAAGGAACCACACACACACACCCAAATGTATA [CACACA_site750],10.1 ± 0.2
9,AATTAAAAATTCAAGTGTACTTTTATATTATTATAC [XGTACX_site4106],8.88 ± 0.28
10,ATTATAATAGTTAAATGTACACACTAACTACATGGA [XGTACX_site6918],8.89 ± 0.38
11,ATTCGGATATATATCACACATAACTTTAATAATATA [CACACA_site5720],8.65 ± 0.47
12,TAAATAGCCAAACGCACACCCACAAAAAAAAAAAAA [CACACA_site1554],9.01 ± 0.4
13,TCATATTTGCCTTTTTATTTAGAACACAAAAAAAAA [CACACA_negctrl_site1152],7.97 ± 0.4
14,TATATATAATATACATGTACAAATGTATTTAAAAAT [XGTACX_site6090],8.84 ± 0.33
15,CAAAAAAAGAAAGCTACACACATTTATGTGCTATAT [CACACA_site2777],9.02 ± 0.54
16,TTTCCATTTTCTCTATGTACATAAAAATGAGATAAA [XGTACX_site5689],8.29 ± 0.39
17,CACACGCACGGACACACACACAAAAAAAAAAAGAAA [CACACA_site6378],9.34 ± 0.58
18,AAGACCATATGAATAATGCACACGTTTTAAAATATT [CACACA_site2323],9.12 ± 0.4
19,ATATTTATGGAATATACACACATGTATAATTACATA [CACACA_site7045],8.83 ± 0.4
20,TCTTTGTACTTTCACATGTACACCCAAATGGAAATT [CACACA_negctrl_site1442],8.76 ± 0.41
21,AAATAAATCTTATGCACACAAATAATTAATGAAACA [CACACA_site5011],8.96 ± 0.49
22,AGGACTAATATTTGAACACACATATAATAAATACAT [CACACA_site6068],9.09 ± 0.47

row,Sequence,gcPBM binding intensity (ln)
1,GTTTGGTGGTGTTTTGGTACGTACGGGGGTGTATGT [XGTACX_site1211],9.88 ± 0.16
2,TGGAAAATAAAGTACGCACACAAAAATTCTCTTCAT [CACACA_site2327],9.14 ± 0.4
3,AATATATTTTAGAGTTTTATATATTTTATGCATATA [GTGCAC_negctrl_site710],8.66 ± 0.49
4,TTCAAACATATTAATTGTACATACAACAAAACCATG [XGTACX_site5149],8.72 ± 0.44
5,ATATTATTTTATGCTACACACATTTTCTCTTATAAA [CACACA_site943],9.02 ± 0.44
6,GGAATTTTTATTCGAAGTACTGTTGTGAGTAATAAA [XGTACX_site8599],8.51 ± 0.44
7,TAAATGTTAAAATTCACACAAATATGTGCGGAATAT [CACACA_site5055],8.77 ± 0.38
8,TTTGACTAAATTAAATATTAAAGTATGGATTATTCT [CACACA_negctrl_site833],8.28 ± 0.45
9,ATATATAATATATACACACACATGTATATATAAATA [CACACA_site1968],9.26 ± 0.34
10,TGCAAGGAACAACACACACACACATAAATGTATATA [CACACA_site8149],10.2 ± 0.36
11,ACCCATTTGATAATAATGCACACCACATATATTTAT [CACACA_site3061],9.24 ± 0.4
12,AAAAAAAAAAAACACACACACACATTCAATATAAAA [CACACA_site40],9.76 ± 0.28
13,ATATGTATTTATGTATTTATGTATTTTTATATTTTT [CACACA_negctrl_site595],8.93 ± 0.5
14,TTTTTTATTTTTTGTTATATTTATAATAATTTATGA [XGTACX_negctrl_site260],8.31 ± 0.54
15,TACTTTACACATATTTTTAATTATTCTGAATTCAAA [GTGCAC_negctrl_site253],8.44 ± 0.44
16,ATATATATATATGTAGTGCATTTTATATATAATATT,9.05 ± 0.13
17,TAAAAGTTCACCTGTACACACATATATATATGTACA [CACACA_site1707],9.07 ± 0.31
18,AAGAAATAAATACATACACACATATATATATATATA [CACACA_site3362],9.97 ± 0.2
19,ATAAGTAATATAATATGTACATATATATATATATAT [XGTACX_site3818],9.67 ± 0.23
20,TATATATTGTTATAATGTACATAATATTTTATCTGC [XGTACX_site4983],8.79 ± 0.44
21,GGAAATTTCAATATTTGTACATATATATATATATAT [XGTACX_site3222],9.28 ± 0.45
22,AGAATAATTTTATCGGTACACACTGTATGCATAATA [CACACA_site374],8.97 ± 0.32

row,Sequence,gcPBM binding intensity (ln)
1,ATGCAAAATAAAGAAGCACACAAAAATGAAATATAT [CACACA_site9217],9.26 ± 0.4
2,TACAGATATTTTATTTCACACATTTTATCATTTTCT [CACACA_site5701],8.97 ± 0.37
3,TTCAAAAAAGGAAAGTTGCACTTGATACGCTTATTA [GTGCAC_site9411],8.46 ± 0.37
4,TTCTATATTTCTTTTTGTACATATAAATTCAAATAA [XGTACX_site2476],8.52 ± 0.52
5,TATATACGCATTTTTATACACACTTGTTTTATAAAA [CACACA_site727],8.79 ± 0.35
6,ATATAAAATAATACATGTACATATTATATATATATA [XGTACX_site1082],9.02 ± 0.12
7,ATTTTTTTTTCTTAATGTACATACCAAAAAGAAAGA [XGTACX_site5471],8.3 ± 0.35
8,TATAATATATTTTAATGTACGTACATCCCGATTAAT [XGTACX_site7651],8.76 ± 0.43
9,TTTGTCTGCATACGCACACACGTGTACCATCTTATG [CACACA_site4784],9.78 ± 0.41
10,GATAAAATATGTTGCCGTACATATTCATATACTTAA [XGTACX_site4776],8.79 ± 0.4
11,TATTAATATATATGTTGTACAAGTTTTTTTTTTTTT [XGTACX_site5865],8.59 ± 0.5
12,TTCTTTATTTTTTCTACACACATTATATATTCAAAG [CACACA_site5866],8.98 ± 0.44
13,AAATATTAAATGACAAAAAAAAAAAAAAAAGGGGTT [CACACA_negctrl_site951],8.86 ± 0.47
14,TATTTTGAAAATAAAAGTACAAATTTTATATTTAAA [XGTACX_site3238],8.14 ± 0.41
15,TATTTATATTCATAATGTACATTCAATTATTGTTTT [XGTACX_site4191],9.11 ± 0.61
16,AATATAATATAATGCACACATAAACAAAAAAAAAAA [CACACA_site783],9.06 ± 0.4
17,AACAAAGAAAATACATGTACAAAAAATATTAACGAA [XGTACX_site287],9.15 ± 0.5
18,TGGTATTTTGATGATAAAAGGAAATTTTTTTTATAC [XGTACX_negctrl_site111],8.23 ± 0.45
19,GTTAGCATATTAAGTTGTACACAATTATTCTTCAAT [XGTACX_site8324],8.8 ± 0.38
20,TTTAATACGAATGAGGCACACACCTAGTATACATGC [CACACA_site621],9.11 ± 0.36
21,TTTAATTTTTTTAAAACACACAAATATATATATATA [CACACA_site3898],8.63 ± 0.33
22,CAAAATAATATATATACACACACACCGATATATATA [CACACA_site8082],9.81 ± 0.18
